In PubChem BioAssay (NCATS):
The inconclusive results got no clear call from the source; some entries with a clear call stand among them for comparison. No potency is given beside an inconclusive call; the fits are too rough. Calls of active or inactive are those of the source. Calls come from the whole dose curve; as a rule, active = well fitted inhibition curve with a large enough effect; inconclusive = small, poorly fitted or top-dose-only effect; inactive = no such curve, though single readings can be large or run the other way.

Molecular target: Muscarinic acetylcholine receptor M1 (Rattus norvegicus) (UniProt P08482)
Assay: qHTS Assay for Antagonists of Acetylcholine Muscarinic M1 Receptor: Kinetic Measurement of Intracellular Calcium Response (AID 943); note: nearly all actives have a fitted effect of over 75% in size
Conditions: M1-expressing cells, kinetic intracellular calcium fluorescence; series mostly up to 35.3 µM; activity change, negative = inhibition: at the top concentration
Source text: NIH Molecular Libraries Screening Centers Network [MLSCN]
NIH Chemical Genomics Center [NCGC]
Acetylcholine muscarinic M1 receptor is a G-protein coupled receptor (GPCR) coupling to the Gq G protein. It is mainly expressed in brain and functionally related to the learning and memory processes. The agonists of this receptor have the potential for the treatment of Alzheimer's disease and cognitive impairments associated with Schizophrenia. Upon an activation of the M1 receptor, phosholipase C (PLC) is activated to produce inositol 1,4,5-trisphosphate (IP3) and diacyl glycerol (DAG) resulting in increase of intracellular free Ca2+ and activation of protein kinase C (PKC). The increase of intracellular calcium can be measured by the fluorescent calcium dyes, Fluo-3 and Fluo-4, using a fluorescence kinetic plate reader.
We have obtained a M1-CHO cell line transfected with rat acetylcholine M1 receptor and optimized a calcium assay with this cell line for compound screening as a counter-screen assay for other Gq-coupled GPCRs.
NCGC Assay Protocol Summary:
The CHO-M1 (CHO-M1) cell line transfected with the rat acetylcholine muscarinic M1 receptor was obtained from ATCC. The cells were maintained in call culture flasks with F12 Kaighn's media (Invitrogen) supplemented with 10 % FBS, 100 units/ml penicillin, 100 ug/ml streptomycin and 250 ug/ml geneticin (Invitrogen) at 37C, 5 % CO2 in a humidified atmosphere. At 90-95 % confluence, the cells were then detached in 15 ml […] % trypsin by 3 minutes incubation at 37C and centrifuged at 1000 RPM to remove the trypsin solution. The resulting cell pellet was resuspended in the cell freezing media containing 10 % DMSO (Invitrogen) at a density of 4 x 10^7 cells/ml. The aliquots of cells at 0.5 - 1 ml per vial were frozen down slowly at 1 degree C/min using a Cryo 1 degree C freezing container in the presence of isopropanol (Nalgene Nunc, Rochster, NY) overnight in a -80C freezer. The frozen cells were then transferred to liquid nitrogen for the storage up to one year.
The resuspended frozen cells were plated at 3 ul/well with 2000 cells in the black, tissue culture treated, clear bottom 1536-well plates. After overnight incubation at 37C, 5% CO2, 2.5 ul/well no-wash calcium dye (containing Fluo-4, BD Biosciences) were loaded and incubated at 37C, 5 % CO2 for 1 hour followed by a 10 min incubation with 20 nl compound in DMSO solution. The assay plates were then placed onto the kinetic fluorescence plate reader (FDSS-7000, Hamamatsu) for a measurement of the kinetic changes in intracellular free calcium. The basal fluorescence signal was measured for 6 times at 1 Hz followed by an addition of 1 ul of carbachol and continued 4 min measurement. The results were calculated as the maximal signal (peak) divided by the minimal signal (basal).
1536-well assay protocol:
(1) 3 ul/well containing 2000 M1-CHO cells in 1536 tissue culture treated black/clear bottom plate
(3) Add 1ul/well calcium dye (from no-wash calcium dye kit, BD Biosciences) containing […]
(4) Incubate 1 hour at 37C with 5% CO2
(5) Add 20 nl compound diluted in DMSO
(6) Incubate 10 minutes at the room temp
(7) Place the plate in FDSS-7000 instrument (Ex = 480 nm and […])
#- read the assay plate 6 times at 1 Hz for basal signal
#- add 1 ul/well EC80 carbachol (100 nM final)
#- continuously read the assay plate for 4 min at 1 Hz
Keywords: acetylcholine muscarinic M1 receptor, calcium kinetic assay, Fluo-4, high throughput screening, MLSMR, MLSCN, NIH Roadmap, qHTS and NCGC
Tags give direction and shape of the fitted curve.

UniProt P08482, sequence (P08482 whole entry, looked up): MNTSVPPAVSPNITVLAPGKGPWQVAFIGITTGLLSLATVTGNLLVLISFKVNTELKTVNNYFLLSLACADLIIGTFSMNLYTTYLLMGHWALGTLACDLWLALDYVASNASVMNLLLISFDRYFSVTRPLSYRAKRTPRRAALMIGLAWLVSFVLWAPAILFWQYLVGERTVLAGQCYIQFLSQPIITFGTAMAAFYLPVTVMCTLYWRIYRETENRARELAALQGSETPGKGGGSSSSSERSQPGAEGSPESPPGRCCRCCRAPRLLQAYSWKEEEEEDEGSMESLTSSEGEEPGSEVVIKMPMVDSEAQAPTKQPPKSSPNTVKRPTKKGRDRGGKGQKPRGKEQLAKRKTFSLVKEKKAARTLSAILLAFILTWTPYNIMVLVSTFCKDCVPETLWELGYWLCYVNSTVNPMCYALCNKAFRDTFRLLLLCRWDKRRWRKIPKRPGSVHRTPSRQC

SMILES | activity change, negative = inhibition | Potency
COCc1nc2c([nH]1)c(=O)n(C)c(=O)n2CC(C)C | inactive: -43.6% | –
COc1ccc2c(c1)c(CC(=O)N1CCOCC1)c(C)n2C(=O)c1ccc(Cl)cc1 | – | inconclusive [inhibitor, partial curve, poor fit]
N#Cc1c(-c2ccccc2)no[n+]1[O-] | – | inconclusive [inhibitor, full curve, poor fit]
CC(N)=NCc1cccc(CN)c1 | – | inconclusive [inhibitor, partial curve, poor fit]
C=CCc1ccccc1OC[C@H](O)CNC(C)C | – | inconclusive [inhibitor, partial curve, poor fit]
NCCNC(=O)c1ccc(Cl)cc1 | – | inconclusive [inhibitor, full curve, poor fit]
N=C(N)c1ccc(N)cc1 | – | inconclusive [inhibitor, full curve, poor fit]
CCCCCCCCCCCCC/C=C\[C@@H](O)[C@@H](N)CO | inactive: 7.58% | –
CN1Cc2c(N)cccc2[C@H](c2ccccc2)C1 | – | inconclusive [inhibitor, full curve, poor fit]
O=C(OCCN1CCOCC1)C1(c2ccccc2)CCCCC1 | – | active: 2 µM
Oc1cc2c(cc1O)[C@H](c1ccccc1)CNCC2 | – | inconclusive [inhibitor, single point]
O=C(O)c1ccccc1Nc1cccc(OCc2ccc3ccccc3n2)c1 | inactive: -40.1% | –
CN1CCc2cccc3c2[C@@H]1Cc1ccc(O)c(O)c1-3 | – | inconclusive [inhibitor, full curve, poor fit]
O=C(O)c1cc(=O)cc(C(=O)O)[nH]1 | – | inconclusive [inhibitor, full curve, poor fit]
CO[C@]1(C2=NCCN2)COc2ccccc2O1 | – | inconclusive [inhibitor, partial curve, poor fit]
Cc1cccc([C@@H]2CN(C)CCc3c2cc(O)c(O)c3Cl)c1 | – | inconclusive [inhibitor, partial curve, poor fit]
O=C(Nc1cc(C(=O)Nc2ccc(S(=O)(=O)O)cc2S(=O)(=O)O)cc(C(=O)Nc2ccc(S(=O)(=O)O)cc2S(=O)(=O)O)c1)Nc1cc(C(=O)Nc2ccc(S(=O)(=O)O)cc2S(=O)(=O)O)cc(C(=O)Nc2ccc(S(=O)(=O)O)cc2S(=O)(=O)O)c1 | – | inconclusive [inhibitor, full curve, poor fit]
NC(N)=NC(N)=Nc1ccccc1 | inactive: -43.7% | –
CCN(CC)CCOC(=O)c1cc(Cl)c(N)cc1OC | – | inconclusive [inhibitor, partial curve, poor fit]
Cc1cccc(C)c1NC(=O)C[N+](C)(C)C | – | inconclusive [inhibitor, full curve, poor fit]

SMILES | activity change, negative = inhibition | Potency
CNCC[C@H](Oc1ccccc1OC)c1ccccc1 | – | active: 14.1 µM
Cc1cc(N)c2ccccc2[n+]1CCCCCCCCCCCCCC[n+]1c(C)cc(N)c2ccccc21 | – | inconclusive [inhibitor, partial curve, poor fit]
C[C@@H]([C@H](O)c1ccc(O)cc1)N1CCC(Cc2ccccc2)CC1 | – | active: 12.6 µM
C1CCC(N=C(NC23CC4CC(CC(C4)C2)C3)N2CCOCC2)CC1 | – | inconclusive [inhibitor, partial curve, poor fit]
CC[C@H](C)N(C)C(=O)c1cc2ccccc2c(-c2ccccc2Cl)n1 | – | inconclusive [inhibitor, full curve, poor fit]
C[C@]12CC3CC(N)(C1)C[C@@](C)(C3)C2 | inactive: -30.7% | –
OC[C@H]1O[C@@H](n2cnc3c(NCCc4ccccc4)ncnc32)[C@H](O)[C@H]1O | inactive: -43.8% | –
CCn1c(=O)c2[nH]c(-c3ccccc3)nc2n(CC)c1=O | – | inconclusive [inhibitor, partial curve, poor fit]
COc1cccc(OC)c1OCCNC[C@@H]1COc2ccccc2O1 | – | active: 10 µM
CC[N+](CC)(CC)CC | – | inconclusive [inhibitor, partial curve, poor fit]
CC(C)(C)NC[C@H](O)COc1cccc2[nH]c(=O)[nH]c12 | – | inconclusive [inhibitor, partial curve, poor fit]
CCCn1c(=O)c2[nH]c(C3CCCC3)nc2n(CCC)c1=O | – | inconclusive [inhibitor, single point]
Fc1cccc(/C=N\N=C/c2cccc(F)c2)c1 | inactive: -36.3% | –
COc1[nH]c2ccc(F)cc2c1C(=O)OCC1CCN(CCNS(C)(=O)=O)CC1 | – | inconclusive [inhibitor, partial curve, poor fit]
Clc1nccc2c1ccc1ccccc12 | – | inconclusive [inhibitor, full curve, poor fit]
O=C(O)C1CCNCC1 | – | inconclusive [inhibitor, full curve, poor fit]
N[C@@H](CO)C(=O)O | – | inconclusive [inhibitor, full curve, poor fit]
COc1ccccc1N1CCN(CCCNc2c(C)c(=O)n(C)c(=O)n2C)CC1 | – | inconclusive [inhibitor, partial curve, poor fit]
Cn1cc(C(=O)OCC2CCN(CCNS(C)(=O)=O)CC2)c2ccccc21 | – | inconclusive [inhibitor, partial curve, poor fit]
N[C@H](Cc1ccc(Cl)cc1)C(=O)O | inactive: -41.6% | –
